Measurements: PubChem BioAssay AID504339 (National Center for Advancing Translational Sciences (NCATS), 2011)
Among all 390,000 compounds or so, about 17,000 (4.4%) were called active. The inconclusive results got no clear call from the source; some entries with a clear call stand among them for comparison. Calls come from the whole dose curve; as a rule, active = well fitted inhibition curve with a large enough effect; inconclusive = small, poorly fitted or top-dose-only effect; inactive = no such curve, though single readings can be large or run the other way. A potency beside an inconclusive call is a rough fit, not a confirmed value.

Target: Lysine-specific demethylase 4A (Homo sapiens) (UniProt O75164)
Sequence of UniProt O75164 (O75164 whole entry, looked up, the tested form may be a part): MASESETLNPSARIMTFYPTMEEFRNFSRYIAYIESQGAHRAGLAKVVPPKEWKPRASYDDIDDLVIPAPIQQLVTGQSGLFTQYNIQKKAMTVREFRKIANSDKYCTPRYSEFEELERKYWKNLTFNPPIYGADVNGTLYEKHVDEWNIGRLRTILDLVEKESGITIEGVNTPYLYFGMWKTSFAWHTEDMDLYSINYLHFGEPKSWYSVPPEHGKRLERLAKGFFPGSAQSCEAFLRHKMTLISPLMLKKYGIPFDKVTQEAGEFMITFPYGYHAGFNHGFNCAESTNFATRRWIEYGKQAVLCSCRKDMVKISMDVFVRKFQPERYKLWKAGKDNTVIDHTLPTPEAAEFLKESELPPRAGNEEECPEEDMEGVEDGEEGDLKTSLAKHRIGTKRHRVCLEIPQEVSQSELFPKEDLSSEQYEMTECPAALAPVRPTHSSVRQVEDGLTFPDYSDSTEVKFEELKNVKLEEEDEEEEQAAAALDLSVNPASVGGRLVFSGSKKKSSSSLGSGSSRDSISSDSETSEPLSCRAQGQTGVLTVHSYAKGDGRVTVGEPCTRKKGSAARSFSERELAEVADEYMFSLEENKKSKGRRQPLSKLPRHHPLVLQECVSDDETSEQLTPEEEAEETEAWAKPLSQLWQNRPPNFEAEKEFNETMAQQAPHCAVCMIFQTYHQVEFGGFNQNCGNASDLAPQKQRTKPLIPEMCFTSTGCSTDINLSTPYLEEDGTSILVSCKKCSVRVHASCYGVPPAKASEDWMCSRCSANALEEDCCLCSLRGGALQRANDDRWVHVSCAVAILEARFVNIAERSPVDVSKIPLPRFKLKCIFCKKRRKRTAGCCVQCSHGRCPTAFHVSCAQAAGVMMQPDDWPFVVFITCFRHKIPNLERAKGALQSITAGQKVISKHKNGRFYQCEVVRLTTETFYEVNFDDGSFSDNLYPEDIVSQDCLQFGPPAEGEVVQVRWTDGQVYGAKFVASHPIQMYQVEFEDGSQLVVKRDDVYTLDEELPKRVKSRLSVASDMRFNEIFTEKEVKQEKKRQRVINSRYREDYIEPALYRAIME
Assay: qHTS Assay for Inhibitors of JMJD2A-Tudor Domain; note: nearly all actives have a fitted effect of over 50% in size
Details: AlphaScreen JMJD2A-Tudor / H3K4me3 peptide binding; activity change, negative = inhibition: at 114 µM (top of the series)
% is set by controls: 0 for no effect and ±100 for the full control effect; potency is the fitted concentration of half-maximal effect; tags give direction and shape of the fitted curve.

Potency, inactive:
CCC(CC)C(=O)Nc1ccc2nc(SCC(=O)N3CCCC3)sc2c1, CC(C)(C)C1CCc2c(sc(NC(=O)c3cc4ccccc4c(=O)o3)c2C(N)=O)C1 (stereo not drawn), O=C1CCCc2oc3c(cc(NS(=O)(=O)c4ccc5c6c(cccc46)C(=O)N5)c4ccccc43)c21, Cc1ccc(-n2ncc(C(=O)N3CCc4ccccc4C3)c2NC(=O)c2ccco2)cc1C, CCCOc1ccc(C2c3c(oc4ccccc4c3=O)C(=O)N2c2nnc(C(C)C)s2)cc1 (stereo not drawn), Cc1nn(Cc2ccccc2Cl)c(C)c1NC(=O)c1noc(C(C)C)c1[N+](=O)[O-], O=[N+]([O-])c1cccc(-c2nnc3n2CCCCC3)c1, Cc1c(Cl)cccc1NC(=O)CNC(=O)c1ccc(F)cc1, COc1ccc(N2CC(NC(=O)C3CCCCC3)CC2=O)cc1 (stereo not drawn), CCC(Oc1ccccc1)C(=O)Nc1nnc(S(=O)(=O)N2CCCCC2)s1 (stereo not drawn), CC(=O)Nc1cccc(NC(=O)CCc2ccccc2)c1, Cc1cccc(N(C)C(=O)Cn2c(=O)oc3cc(S(=O)(=O)N4CCCCC4)ccc32)c1, Cc1nc2sc3c(c2c(=O)o1)CCCC3, COc1ccc(NC(=O)C2C3C=CC(C3)C2C(=O)NCc2ccco2)c(OC)c1 (stereo not drawn), OCC[C@@H]1C[C@H](O)[C@@H](O)[C@@]2(OCCc3ccccc32)O1, Cc1sc2ccccc2c1CNC[C@H]1O[C@@H](n2cnc3c(N)ncnc32)[C@H](O)[C@@H]1O, COc1ccc(CC(C(=O)Nc2ccc(OC)cc2)c2nn[nH]n2)cc1 (stereo not drawn), CC(=O)Nc1cccc(S(=O)(=O)Nc2ccc(C)c(C)c2)c1

Potency, active:
Clc1c(OCCCn2ccnc2)ccc2ccccc12 56.2 µM, Cc1ccc(OCC(=O)c2ccc(Cl)s2)c([N+](=O)[O-])n1 56.2 µM, Cc1nn(S(=O)(=O)c2ccc(C(C)C)cc2)c(C)c1S(=O)(=O)N1CCOCC1 79.4 µM, CC(C)n1c(=O)c2c(O)cc(=O)oc2c2ccccc21 50.1 µM, O=C(CSc1nnc2c(n1)[nH]c1ccccc12)Nc1ccc(N2CCOCC2)cc1 31.6 µM, COc1ccc(N2CC(C(=O)Nc3nnc(SCC(=O)NCC4CCCO4)s3)CC2=O)cc1 (stereo not drawn) 35.5 µM, Cn1c(N)c(C#N)c2c(c1=S)CSC(C)(C)C2 79.4 µM, Cn1c(CCc2ccccc2)n[nH]c1=S 28.2 µM, COc1cc(CNCc2ccccn2)ccc1OCc1ccc(Cl)cc1 25.1 µM, CC(C)CSc1n[nH]c(=S)s1 8.91 µM, O=c1cc(CSc2nnnn2-c2ccccc2)[nH]c2[nH]n(-c3ccccc3)c(=O)c12 89.1 µM, O=[N+]([O-])C(=C1Nc2ccccc2N1)/C(Cl)=C(/Cl)Br 17.8 µM, COC(=O)c1sccc1NC(=O)c1cccnc1 89.1 µM, Cc1cc(C)n(-c2nnc(NCc3ccc(Cl)cc3)nn2)n1 39.8 µM

Potency, inconclusive:
COc1ccc(OCC(=O)Nc2ccc3oc(-c4ccncc4)nc3c2)cc1 63.1 µM [inhibitor, partial curve, poor fit], COc1cc(/C=C/C(=O)OCC(=O)NC(=O)NCc2ccco2)ccc1OC(F)F 8.91 µM [inhibitor, full curve, poor fit], Cc1nc(N)sc1-c1csc(Nc2cccc(O)c2)n1 56.2 µM [inhibitor, partial curve], CCOC(=O)Cc1cnc(NC(=O)CSc2nc(N)cc(=O)[nH]2)s1 15.8 µM [inhibitor, full curve], CCn1c(=O)c2c3c(sc2n2cnnc12)CCC3 89.1 µM [inhibitor, single point], COc1cccc(NC(=O)CSc2nnc(Cc3ccc(C)cc3)c(=O)n2N)c1 89.1 µM [inhibitor, partial curve], c1ccc(Cn2c3ccccc3c3nnc(SCCN4CCCCC4)nc32)cc1 79.4 µM [inhibitor, partial curve], O=C(CCN1C(=O)/C(=C/c2ccc(F)cc2)SC1=S)NCCc1cnc[nH]1 56.2 µM [inhibitor, partial curve], Cc1cccc(OCCCC(=O)Nc2ccc(S(=O)(=O)Nc3nccs3)cc2)c1C 89.1 µM [inhibitor, partial curve], COc1cccc(C=NCC(C)N=Cc2cccc(OC)c2O)c1O (stereo not drawn) 79.4 µM [inhibitor, single point], CN1CCN(CC(=O)C23CC4CC(CC(C4)C2)C3)CC1 20 µM [inhibitor, full curve], CC(=O)Oc1ccc(N2C(=O)C3C4C=CC(O4)C3C2=O)cc1 (stereo not drawn) 79.4 µM [inhibitor, partial curve], O=C(CSc1nnc(-c2ccco2)n1Cc1ccccc1)c1ccc(F)cc1 39.8 µM [inhibitor, partial curve], COCCCNC(=O)c1cc(=O)n(Cc2ccc(Cl)cc2)c2ccccc12 56.2 µM [inhibitor, partial curve], CCOC(=O)c1cc(S(=O)(=O)Nc2ccccc2)[nH]n1 89.1 µM [inhibitor, single point], CC(=O)C1=C(C)NC(SCc2cccc([N+](=O)[O-])c2)=C(C#N)C1c1ccco1 (stereo not drawn) 50.1 µM [inhibitor, partial curve], CCOC(=O)c1c(-c2ccc(OC)cc2)csc1/N=C/C1=C(O)CCCC1=O 44.7 µM [inhibitor, partial curve], COc1ccc(Cc2nc3c([nH]2)c(=O)n(C)c(=O)n3C)cc1OC 28.2 µM [inhibitor, single point], Cc1ccc(-n2c(C)cc(C(=O)CSc3nnnn3C)c2C)cc1 44.7 µM [inhibitor, partial curve], O=S(=O)(Nc1ccc2ccccc2n1)c1ccc2c(c1)CCO2 100 µM [inhibitor, single point], CCOc1ccccc1NC(=O)CCS(=O)(=O)c1ccc2c(c1)CCN2C(C)=O 14.1 µM [inhibitor, full curve, poor fit], O=[N+]([O-])c1ccc(N2CCCCCC2)c([N+](=O)[O-])c1 17.8 µM [inhibitor, full curve, poor fit], Cc1c(C(=O)c2ccc(Cl)cc2Cl)cnc2cc3c(cc12)OCO3 39.8 µM [inhibitor, single point], S=c1nc(-c2csc3c2CCCC3)[nH][nH]1 22.4 µM [inhibitor, single point], CCS(=O)(=O)CCSC(=N)N 79.4 µM [inhibitor, partial curve], CCN(c1ccc(OC)cc1)S(=O)(=O)c1ccc2[nH]c3c(c2c1)CCCCC3 17.8 µM [inhibitor, full curve], Clc1ccc(C(Cn2ccnc2)OCc2c(Cl)cccc2Cl)c(Cl)c1 (stereo not drawn) 39.8 µM [inhibitor, partial curve, poor fit], CCC(C)(C)n1nnnc1C(c1cc2cc(OC)c(OC)cc2[nH]c1=O)N1CCc2ccccc21 (stereo not drawn) 50.1 µM [inhibitor, partial curve], Cc1nnc(NC(=O)Cc2cccs2)s1 63.1 µM [inhibitor, partial curve, poor fit], FC(F)Sc1nc2ccccc2[nH]1 12.6 µM [inhibitor, partial curve], Cc1ccccc1N1CCN(CC(=O)Nc2nc(C)c(C(=O)N(C)C)s2)CC1 31.6 µM [inhibitor, single point], O=C(O)C1CCN(c2ccc([N+](=O)[O-])cc2[N+](=O)[O-])CC1 56.2 µM [inhibitor, partial curve], CC1(C)Oc2ccc3ccc(=O)oc3c2/C(=C/NNC(N)=S)C1=O 56.2 µM [inhibitor, partial curve], COc1cccc(C(=O)c2c(-c3ccccc3)ncc3cc(OC)c(OC)cc23)c1 50.1 µM [inhibitor, partial curve], COc1ccc(N2CCN(C(=O)CSc3ncccc3-c3nc4ccccc4[nH]3)CC2)cc1 63.1 µM [inhibitor, partial curve, poor fit], Cc1ccc2nc(-c3ccc(NS(C)(=O)=O)cc3)cc(-c3ccccc3)c2c1 89.1 µM [inhibitor, partial curve], CCCN(CC(=O)Nc1ccccc1C)C(=O)c1ccc(N2CCCCC2)c([N+](=O)[O-])c1 50.1 µM [inhibitor, partial curve], Cc1ccc(NC(=O)CN(C)S(=O)(=O)c2cccc3nsnc23)cc1Cl 0.0355 µM [inhibitor, full curve, poor fit]

Activity change, negative = inhibition, inconclusive:
Cc1ccc(OCC(=O)N/N=C\c2c(C)[nH]n(-c3ccccc3)c2=O)c([N+](=O)[O-])c1 -73.6% [inhibitor]

Activity change, negative = inhibition, inactive:
COc1cc(NC(=O)CN2CCN(S(=O)(=O)c3ccc(C(C)C)cc3)CC2)cc(OC)c1 -28.1% [at 11.4 µM], O=C1CCN(S(=O)(=O)c2ccc(Cl)cc2)CCN1 -8.82% [at 11.4 µM]
